Measured values as given in PubChem BioAssay AID686978 (National Center for Advancing Translational Sciences (NCATS), 2013).
Values joined by “and” are separate entries in the source; they are usually repeats but may differ in a detail not shown here. Identical values can stand only once. In all, about 420,000 compounds went through this assay and about 64,000 (15%) were called active. This list was built around the results that the source calls inconclusive (neither active nor inactive); the mix of calls is not that of the screen. Calls come from the whole dose curve; as a rule, active = well fitted inhibition curve with a large enough effect; inconclusive = small, poorly fitted or top-dose-only effect; inactive = flat fitted curve, though single readings scatter. Potencies of inconclusive entries are doubtful fits and often do not repeat.

assay: qHTS for Inhibitors of human tyrosyl-DNA phosphodiesterase 1 (TDP1): qHTS in cells in absence of CPT; details: DT40 Tdp1-/- hTDP1 cells, no CPT, ATP luminescence, 48 h; activity change, negative = growth inhibition: at 46.2 µM (top of the series) unless noted; note: nearly all actives have a fitted effect of over 55% in size
Method in brief: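 Chicken DT40 Tdp1-/- cells stably complemented with human TDP1 were seeded at 400 cells/well with DMSO in place of 20 nM camptothecin. After compound pinning, cells grew at least 48 hr at 37 °C; viability read by CellTiter-Glo luminescence.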
% is set by controls: 0 for no effect and ±100 for the full control effect; potency is the fitted concentration of half-maximal effect; tags give direction and shape of the fitted curve.

SMILES	Potency	activity change, negative = growth inhibition
CNc1cncc(-c2c(OC)cccc2OC)n1	inconclusive: 29.1 µM [inhibitor, single point]	–
O=C(NC1CCCc2ccccc21)c1ccc([N+](=O)[O-])cc1 (centres undefined)	–	inactive: -19.6%
COCCn1c(N)c(N(Cc2ccccc2)C(=O)C2CCCCC2)c(=O)[nH]c1=O	–	inactive: -18.9%
COc1ccc(C)cc1NC(=O)CCS(=O)(=O)c1cccc2nonc12	–	inactive: -7.48%
COc1ccc(-c2sc3cc4c(cc3c2C#Cc2ccc(N)cc2)OCO4)cc1	inconclusive: 20.6 µM [inhibitor, single point]	–
CN1C(=O)NC(c2ccccc2[N+](=O)[O-])C2=C1CCCC2=O (centres undefined)	–	inactive: 14.2%
O=C(COC(=O)c1ccc(-c2cnc3ccccc3n2)cc1)c1ccccc1	inconclusive: 14.6 µM [inhibitor, partial curve, poor fit]	–
CC(=O)C(Sc1nc(-c2ccccc2Cl)nc2c1c(=O)n(C)c(=O)n2C)C(=O)N(C)C (centres undefined)	inconclusive: 29.1 µM [inhibitor, single point]	–
S=C(Nc1ccccc1Cl)Nc1ccc(Cl)cc1Cl	–	inconclusive: -33.2% [inhibitor]
Cc1noc(C)c1NC(=O)N(C)C[C@H]1Oc2ccc(NC(=O)CCC(F)(F)F)cc2C(=O)N([C@H](C)CO)C[C@@H]1C	–	inactive: -11%
Cc1cccc(N2CCN(C(=O)C3CCC(=O)N(C4CC4)C3)CC2)c1C (centres undefined)	inconclusive: 23.1 µM [inhibitor, single point]	–
CC1(C)C(=O)Nc2ccccc2N1C(=O)COC(=O)c1cccc(O)c1	inconclusive: 29.1 µM [inhibitor, single point]	–
COc1cc2nc(N3CCN(C)CC3)nc(NC(C)C)c2cc1OC	active: 17.8 µM	–
COc1ccc(N(C)S(=O)(=O)c2ccc(Cl)c(C(=O)NCC(C)(C)N3CCOCC3)c2)cc1	active: 9.2 µM	–
Cc1cccc2cc3c(NC(=O)C(C)C)nn(C)c3nc12	–	inactive: -29%
CCC(=O)N1CCc2cc(S(=O)(=O)NC(CC(C)C)C(=O)NCc3cccc(OC)c3)ccc21 (centres undefined)	–	inactive: -14%
N#CCCn1c(=O)n(CCC#N)c2ccccc21	–	inactive: -3.86%
O=C(c1ccc(Br)s1)N1CCN(Cc2ccc3c(c2)OCO3)CC1	inconclusive: 35.5 µM [inhibitor, single point]	–
Cc1ccc(S(=O)(=O)N(C)c2ccccc2)cc1	inconclusive: 29.1 µM [inhibitor, single point]	–
Cc1csc(N/N=C/c2c(F)cccc2Cl)n1	–	inconclusive: -31% [inhibitor]
COc1ccc(CCn2cnc3c([nH]c4ccccc43)c2=O)cc1	–	inactive: -8.41%
C=CCn1c(N)cc(=O)nc1SC(C)C(=O)Nc1cccc2ccccc12 (centres undefined)	–	inactive: 3.3%
CCn1cc(CN2CCC(n3nccc3NC(=O)c3ccccc3C)CC2)c(C)n1	–	inactive: 0.0208%
Cc1cc2oc(=O)cc(CN3CCCCC3)c2cc1O	inconclusive: 29.1 µM [inhibitor, single point]	–
Cc1ccc(C(=O)CSc2nnc(-c3ccco3)n2CC2CCCO2)cc1 (centres undefined)	inconclusive: 29.1 µM [inhibitor, single point]	–

SMILES	Potency	activity change, negative = growth inhibition
Cc1ccc(NC(=O)NCc2c(-n3cccc3)sc3c2CCCC3)c(Cl)c1	active: 23.1 µM	–
O=C(CCc1nc(-c2ccccc2F)no1)NCCN1CCN(Cc2ccccc2)CC1	inconclusive: 18.4 µM [inhibitor, single point]	–
COc1cccc(C(=O)c2cn(CC(=O)Nc3ccc4c(c3)OCCO4)c3nc(C)ccc3c2=O)c1	inconclusive: 20.6 µM [inhibitor, single point]	–
COc1cc(/C=C/C(=O)OCC(=O)NC2CCS(=O)(=O)C2)ccc1OC(F)F (centres undefined)	–	inactive: -8.62%
CSc1nc(NCc2ccco2)c2ccccc2n1	inconclusive: 23.1 µM [inhibitor, single point]	–
COc1ccccc1C/C(N)=N/OC(=O)c1ccc(C)c([N+](=O)[O-])c1	inconclusive: 7.31 µM [inhibitor, partial curve]	–
COc1ccc(S(=O)(=O)N2CCOC2CNC(=O)C(=O)NCCc2ccc(OC)c(OC)c2)cc1 (centres undefined)	inconclusive: 18.4 µM [inhibitor, single point]	–
Cc1cc(NC(C)C)n2c(nc3ccccc32)c1C#N	–	inactive: -24.2%
COC(=O)c1[nH]c2cccc(OC)c2c1NC(=O)CN1CCN(c2cccc(OC)c2)C(C)C1 (centres undefined)	active: 14.6 µM	–
Cc1ccc(CNC(=O)c2cn(C)c3ccc(S(=O)(=O)N4CCC(C)CC4)cc3c2=O)cc1	inconclusive: 5.8 µM [inhibitor, full curve]	–
CC(NC(=O)CSc1nc2c(cc1C#N)CN(C)CC2)c1ccccc1 (centres undefined)	inconclusive: 20.6 µM [inhibitor, single point]	–
COc1ccccc1CN(C)C(=O)c1cccc(S(=O)(=O)N2CCCc3ccccc32)c1	active: 11.6 µM	–
Cc1ccccc1NC(=O)N1CCCC1C(=O)NCc1ccccc1 (centres undefined)	–	inactive: 22.4%
COc1cc(CC(=O)Nc2nc(-c3ccccc3)c(C(C)=O)s2)cc(OC)c1OC	inconclusive: 16.4 µM [inhibitor, partial curve]	–
CC(C)c1nc(CNC(=O)CC2C(=O)NCCN2Cc2cccc(F)c2F)cs1 (centres undefined)	–	inactive: -8.46%
Cc1ccc(C(=O)N/C(=C\c2ccco2)C(=O)NCCc2c[nH]c3ccccc23)cc1	inconclusive: 16.4 µM [inhibitor, single point]	–
Cc1cccc(C)c1NC(=O)c1cc2sccc2n1Cc1ccc(F)cc1	inconclusive: 14.6 µM [inhibitor, partial curve, poor fit]	–
OC(COc1ccc(F)cc1Cl)CN1CCC(Cc2ccccc2)CC1 (centres undefined)	active: 20.6 µM	–
CC(C)COc1ccc(-c2nnn(CC(=O)N3CCCC3)n2)cc1	inconclusive: 23.1 µM [inhibitor, single point]	–
CCc1nc2ccc(C(=O)N3CCC(O)(Cc4ccccc4)CC3)cn2c1N(C)C(=O)Cc1ccccc1	–	inactive: -26.2%
Cc1ccc(CCNC(=O)c2cc(S(=O)(=O)N3CCOCC3)cn2C)cc1	inconclusive: 18.4 µM [inhibitor, partial curve]	–
Cc1scc(C(=O)N/N=C/c2ccc(OC(C)C)cc2)c1C	inconclusive: 18.4 µM [inhibitor, partial curve]	–
COC(=O)CSc1nc2cc(C)cc(C)c2cc1C#N	inconclusive: 12.6 µM [inhibitor, single point]	–
O=C(O)c1ccccc1NS(=O)(=O)c1ccc(NN=Cc2cccc(Cl)c2)c([N+](=O)[O-])c1	–	inactive: -4.91%
COc1ccc(Nc2cc(C)nc(-n3nc(C)cc3C)n2)cc1	active: 0.184 µM	–

SMILES	Potency	activity change, negative = growth inhibition
CCOC(=O)c1c(C)[nH]c(C(=O)OCc2c(C)noc2C)c1C	inconclusive: 14.6 µM [inhibitor, partial curve]	–
OCC1(c2cc(C(F)(F)F)n[nH]2)CCCCC1	–	inactive: -15.9%
C=CCNC(=S)Nc1ccc2nc(C)oc2c1	inconclusive: 0.0116 µM [inhibitor, full curve, poor fit]	–
O=C(COc1ccc(/C=N/NS(=O)(=O)c2ccccc2)cc1)Nc1cccc(Cl)c1	active: 20.6 µM	–
O=Nc1c(O)[nH]c2ccc(Cl)cc12	inconclusive: 11.6 µM [inhibitor, partial curve]	–
COc1cc(N)c(Cl)cc1C(=O)OCC(=O)N1CCCCCC1	–	inactive: 8.93%
COc1cccc(NC(=O)COC(=O)c2ccc(C)c(S(=O)(=O)N3CCCCC3)c2)c1	inconclusive: 18.4 µM [inhibitor, single point]	–
CN1CCCC(CC2c3ccccc3Sc3ccccc32)C1 (centres undefined)	active: 8.05 µM	–
O=c1[nH]cc(CCCc2ccccc2)c(=O)[nH]1	–	inactive: -7.1%
Cc1ccc(Sc2c(C)nn(-c3ccccc3)c2OC(=O)CC(C)C)cc1	–	inactive: -27%
Cc1ccc([N+](=O)[O-])c(NC(=O)COC(=O)CCNS(=O)(=O)c2cccs2)c1C	–	inactive: -17.9%
CCOc1ccc(CC(=O)NCc2ccc3c(c2)CCN3C(=O)c2ccc(F)cc2)cc1OCC	inconclusive: 29.1 µM [inhibitor, single point]	–
O=C(O)c1ccc2oc(SCC(=O)N3CCCCC3)nc2c1	–	inactive: -4.59%
Cc1ccc(-c2cc(-c3ccco3)c3c(N)c(C(=O)NN)oc3n2)cc1	inconclusive: 18.4 µM [inhibitor, single point]	–
CCn1c(CS(=O)Cc2ccc(Cl)cc2Cl)nnc1SCc1c(Cl)cccc1Cl (centres undefined)	inconclusive: 23.1 µM [inhibitor, single point]	–
Cc1ccc(N=Nc2ccc(O)c(P(=O)(c3ccccc3)c3ccccc3)c2)cc1	inconclusive: 25.9 µM [inhibitor, partial curve, poor fit]	–
CCc1nnc(NS(=O)(=O)c2ccc(NC(=S)NC(=O)/C=C/c3ccccc3)cc2)s1	–	inactive: -17.7%
Cc1ccc(C(=O)c2nocc2C(=O)c2cccs2)cc1	–	inconclusive: -1.22% [inhibitor]
Cn1c(C(=O)N2CCc3ccccc3C2)cc2c(=O)n3ccccc3nc21	inconclusive: 29.1 µM [inhibitor, single point]	–
NNC(=O)COc1cccc2cccnc12	–	inactive: -14.5%
CC(=O)Oc1ccc(Cn2c(C)c(C(=O)NC3CC3)sc2=O)cc1	–	inactive: -21.4%
Cc1cc(C)cc(NC(=O)C2CCCN2S(=O)(=O)c2ccc3c(c2)C(C)(C)C(=O)N3C)c1 (centres undefined)	inconclusive: 16.4 µM [inhibitor, single point] and inconclusive: 13 µM [inhibitor, single point]	–
CCOc1cc(C)c(C(C)C)cc1S(=O)(=O)N1CCOCC1	inconclusive: 29.1 µM [inhibitor, single point]	–
CCOc1cccc(CN2CCCC(C(=O)Nc3cccc(-n4cccn4)c3)C2)c1 (centres undefined)	inconclusive: 23.1 µM [inhibitor, single point]	–
